# Measured values reported in article PMC6643034.
# No constants are given. Whether binding was seen depends on the method and setting. For some assays here: Sequences can lack the tags named with a protein.
# T1: P1142_AMBCA (Amblyomma cajennense)
# T1 sequence: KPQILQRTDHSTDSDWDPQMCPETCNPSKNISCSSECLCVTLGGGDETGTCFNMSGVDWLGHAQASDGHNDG
# T2: P1172_IXORI (Ixodes ricinus) (UniProt V5I2G9)
# T2 sequence: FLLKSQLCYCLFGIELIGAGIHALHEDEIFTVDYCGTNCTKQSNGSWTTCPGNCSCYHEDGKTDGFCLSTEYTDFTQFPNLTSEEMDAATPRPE
# T3: EVA3_RHISA (Rhipicephalus sanguineus) (UniProt P0C8E8)
# T3 sequence: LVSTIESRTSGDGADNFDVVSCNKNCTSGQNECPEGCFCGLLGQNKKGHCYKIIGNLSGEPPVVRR
# T4: P1126_AMBCA (Amblyomma cajennense)
# T4 sequence: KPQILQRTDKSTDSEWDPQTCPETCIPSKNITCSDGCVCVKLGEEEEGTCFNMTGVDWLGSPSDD
# B1: CCL22 (ligand, UniProt O00626 25-93)
# chain: GPYGANMEDSVCCRDYVRYRLPLRVVKHFYWTSDSCPRPGVVLLTFRDKEICADPRVPWVKMILNKLSQ
# B2: XCL1 (ligand, UniProt P47992 22-114)
# chain: VGSEVSDKRTCVSLTTQRLPVSRIKTYTITEGSLRAVIFITKRGLKVCADPQATWVRDVVRSMDRKSNTRNNMIQTKPTGTQQSTNTAVTLTG
# B3: CCL3L1 (ligand, UniProt P16619 24-93)
# chain: APLAADTPTACCFSYTSRQIPQNFIADYFETSSQCSKPSVIFLTKRGRQVCADPSEEWVQKYVSDLELSA
# B4: CXCL9 (ligand, UniProt Q07325 23-125)
# chain: TPVVRKGRCSCISTNQGTIHLQSLKDLKQFAPSPSCEKIEIIATLKNGVQTCLNPDSADVKELIKKWEKQVSQKKKQKNGKKHQKKKVLKVRKSQRSRQKKTT
# B5: CCL24 (ligand, UniProt O00175 27-119)
# chain: VVIPSPCCMFFVSKRIPENRVVSYQLSSRSTCLKAGVIFTTKKGQQFCGDPKQEWVQRYMKNLDAKQKKASPRARAVAVKGPVQRYPGNQTTC
# B6: CCL18 (ligand, UniProt P55774 21-89)
# chain: AQVGTNKELCCLVYTSWQIPQKFIVDYSETSPQCPKPGVILLTKRGRQICADPNKKWVQKYISDLKLNA
# B7: CXCL14 (ligand, UniProt O95715 35-111)
# chain: SKCKCSRKGPKIRYSDVKKLEMKPKYPHCEEKMVIITTKSVSRYRGQEHCLHPKLQSTKRFIKWYNAWNEKRRVYEE
# B8: CCL1 (ligand, UniProt P22362 24-96)
# chain: KSMQVPFSRCCFSFAEQEIPLRAILCYRNTSSICSNEGLIFKLKRGKEACALDTVGWVQRHRKMLRHCPSKRK
# B9: CCL27 (ligand, UniProt Q9Y4X3 25-112)
# chain: FLLPPSTACCTQLYRKPLSDKLLRKVIQVELQEADGDCHLQAFVLHLAQRSICIHPQNPSLSQWFEHQERKLHGTLPKLNFGMLRKMG
# B10: CCL16 (ligand, UniProt O15467 24-120)
# chain: QPKVPEWVNTPSTCCLKYYEKVLPRRLVVGYRKALNCHLPAIIFVTKRNREVCTNPNDDWVQEYIKDPNLPLLPTRNLSTVKIITAKNGQPQLLNSQ
# Biological target: T1, P1142_AMBCA (Amblyomma cajennense)
# Experiment: BLI; cross-binding screen on OctetRed; evasin held on a nickel-coated biosensor through its C-terminal His tag; each human chemokine at 300 nM; both purified
row,Binder,binding
1,B1,no binding (tested: 300 nM)
2,B2,no binding (tested: 300 nM)
3,B3,no binding (tested: 300 nM)
4,B4,no binding (tested: 300 nM)
5,B5,no binding (tested: 300 nM)
6,B6,no binding (tested: 300 nM)
7,B7,no binding (tested: 300 nM)
8,B8,no binding (tested: 300 nM)
9,B9,no binding (tested: 300 nM)

# Biological target: T2, P1172_IXORI (Ixodes ricinus)
# Experiment: as above
row,Binder,binding
1,B1,no binding (tested: 300 nM)
2,B2,no binding (tested: 300 nM)
3,B3,no binding (tested: 300 nM)
4,B10,no binding (tested: 300 nM)
5,B4,no binding (tested: 300 nM)
6,B5,no binding (tested: 300 nM)
7,B6,no binding (tested: 300 nM)
8,B7,no binding (tested: 300 nM)
9,B8,no binding (tested: 300 nM)
10,B9,no binding (tested: 300 nM)

# Biological target: P1080_IXORI (Ixodes ricinus)
# Experiment: as above
row,Binder,binding
1,B1,no binding (tested: 300 nM)
2,B2,no binding (tested: 300 nM)
3,B3,no binding (tested: 300 nM)
4,B10,no binding (tested: 300 nM)
5,B5,no binding (tested: 300 nM)
6,B6,no binding (tested: 300 nM)
7,B7,no binding (tested: 300 nM)
8,B8,no binding (tested: 300 nM)
9,B9,no binding (tested: 300 nM)

# Biological target: P1100_IXORI (Ixodes ricinus)
# Experiment: as above
row,Binder,binding
1,B1,no binding (tested: 300 nM)
2,B2,no binding (tested: 300 nM)
3,B3,no binding (tested: 300 nM)
4,B10,no binding (tested: 300 nM)
5,B5,no binding (tested: 300 nM)
6,B6,no binding (tested: 300 nM)
7,B8,no binding (tested: 300 nM)
8,B9,no binding (tested: 300 nM)

# Biological target: P1078_IXORI (Ixodes ricinus)
# Experiment: as above
row,Binder,binding
1,B1,no binding (tested: 300 nM)
2,B2,no binding (tested: 300 nM)
3,B3,no binding (tested: 300 nM)
4,B10,no binding (tested: 300 nM)
5,B4,no binding (tested: 300 nM)
6,B5,no binding (tested: 300 nM)
7,B6,no binding (tested: 300 nM)
8,B7,no binding (tested: 300 nM)
9,B8,no binding (tested: 300 nM)
10,B9,no binding (tested: 300 nM)

# Biological target: T3, EVA3_RHISA (Rhipicephalus sanguineus)
# Experiment: as above
row,Binder,binding
1,B1,no binding (tested: 300 nM)
2,B2,no binding (tested: 300 nM)
3,B3,no binding (tested: 300 nM)
4,B10,no binding (tested: 300 nM)
5,B4,no binding (tested: 300 nM)
6,B5,no binding (tested: 300 nM)
7,B6,no binding (tested: 300 nM)
8,B7,no binding (tested: 300 nM)
9,B8,no binding (tested: 300 nM)
10,B9,no binding (tested: 300 nM)

# Biological target: T4, P1126_AMBCA (Amblyomma cajennense)
# Experiment: as above
row,Binder,binding
1,B1,no binding (tested: 300 nM)
2,B2,no binding (tested: 300 nM)
3,B3,no binding (tested: 300 nM)
4,B5,no binding (tested: 300 nM)
5,B6,no binding (tested: 300 nM)
6,B7,no binding (tested: 300 nM)
7,B8,no binding (tested: 300 nM)
8,B9,no binding (tested: 300 nM)

# Biological target: P1090_IXORI (Ixodes ricinus)
# Experiment: as above
row,Binder,binding
1,B1,no binding (tested: 300 nM)
2,B2,no binding (tested: 300 nM)
3,B3,no binding (tested: 300 nM)
4,B10,no binding (tested: 300 nM)
5,B4,no binding (tested: 300 nM)
6,B5,no binding (tested: 300 nM)
7,B6,no binding (tested: 300 nM)
8,B7,no binding (tested: 300 nM)
9,B8,no binding (tested: 300 nM)
10,B9,no binding (tested: 300 nM)

# Biological target: P1124_IXORI (Ixodes ricinus)
# Experiment: as above
row,Binder,binding
1,B1,no binding (tested: 300 nM)
2,B2,no binding (tested: 300 nM)
3,B3,no binding (tested: 300 nM)
4,B10,no binding (tested: 300 nM)
5,B5,no binding (tested: 300 nM)
6,B6,no binding (tested: 300 nM)
7,B7,no binding (tested: 300 nM)
8,B8,no binding (tested: 300 nM)
9,B9,no binding (tested: 300 nM)

# Biological target: P1086_IXORI (Ixodes ricinus)
# Experiment: as above
row,Binder,binding
1,B1,no binding (tested: 300 nM)
2,B3,no binding (tested: 300 nM)
3,B10,no binding (tested: 300 nM)
4,B5,no binding (tested: 300 nM)
5,B6,no binding (tested: 300 nM)
6,B7,no binding (tested: 300 nM)
7,B8,no binding (tested: 300 nM)
8,B9,no binding (tested: 300 nM)

# Biological target: P942_IXORI (Ixodes ricinus)
# Experiment: as above
row,Binder,binding
1,B1,no binding (tested: 300 nM)
2,B2,no binding (tested: 300 nM)
3,B3,no binding (tested: 300 nM)
4,B10,no binding (tested: 300 nM)
5,B4,no binding (tested: 300 nM)
6,B5,no binding (tested: 300 nM)
7,B6,no binding (tested: 300 nM)
8,B7,no binding (tested: 300 nM)
9,B8,no binding (tested: 300 nM)
10,B9,no binding (tested: 300 nM)
